From PMC5027616
No constants are given. Whether binding was seen depends on the method and setting. For some assays here: In cells and extracts the contact can be indirect. Some entries that bind do so weakly or less than the wild type. For some assays here: Where a sequence is shown, tags or fusion partners need not be part of it. Blank lines part the entries; values can stand above or below the binder they belong to.

Experiments:
[1] = biological target: T1, full-length human IL-13Rα2, yeast two-hybrid bait (pGBKT7-IL-13Rα2) (human) (UniProt Q14627); experiment: two-hybrid; IL-13Rα2 constructs against full-length TMEM219, as described in ref. 13
T1 sequence: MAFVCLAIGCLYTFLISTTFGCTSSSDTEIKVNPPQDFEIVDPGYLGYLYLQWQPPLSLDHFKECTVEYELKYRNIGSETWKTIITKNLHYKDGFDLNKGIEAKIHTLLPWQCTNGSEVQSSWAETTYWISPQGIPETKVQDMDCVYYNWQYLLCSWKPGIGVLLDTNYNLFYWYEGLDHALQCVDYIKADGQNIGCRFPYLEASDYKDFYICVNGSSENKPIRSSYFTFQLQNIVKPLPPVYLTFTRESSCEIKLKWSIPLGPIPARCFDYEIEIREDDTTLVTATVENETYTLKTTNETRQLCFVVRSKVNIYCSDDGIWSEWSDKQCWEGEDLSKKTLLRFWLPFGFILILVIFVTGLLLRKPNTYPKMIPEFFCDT

IL-13Rα2-V1 (human) [2] = biological target: T2, IL-13Rα2-V1 (human) (UniProt Q14627); experiment: split reporter; BiFC with Venus YFP fragments V1 and V2 in live 1HAEo cells; vehicle, rChi3l1 (500 ng/ml) or rIL-13 (20 ng/ml); confocal microscopy and FACS
T2 sequence: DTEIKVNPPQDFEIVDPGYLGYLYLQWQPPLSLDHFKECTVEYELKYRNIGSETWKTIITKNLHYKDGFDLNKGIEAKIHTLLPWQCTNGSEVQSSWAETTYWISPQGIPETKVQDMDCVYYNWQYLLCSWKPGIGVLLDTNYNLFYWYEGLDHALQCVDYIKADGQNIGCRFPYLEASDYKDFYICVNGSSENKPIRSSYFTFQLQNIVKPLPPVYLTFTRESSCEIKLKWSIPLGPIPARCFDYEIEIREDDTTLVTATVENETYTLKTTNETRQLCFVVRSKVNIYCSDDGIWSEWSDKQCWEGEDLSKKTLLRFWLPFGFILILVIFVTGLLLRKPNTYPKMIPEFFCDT

TMEM219-V2 (human) = biological target: T3, TMEM219-V2 (human) (UniProt Q86XT9); experiment: as above
T3 sequence: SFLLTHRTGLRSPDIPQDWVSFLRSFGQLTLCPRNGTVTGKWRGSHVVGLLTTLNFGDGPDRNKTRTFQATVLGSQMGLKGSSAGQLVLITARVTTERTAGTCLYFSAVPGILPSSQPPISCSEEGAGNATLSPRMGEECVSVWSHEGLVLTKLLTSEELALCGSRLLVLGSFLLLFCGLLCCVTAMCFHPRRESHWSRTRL

[3] = biological target: T4, IL-13Rα2 in mouse lung (mouse (endogenous in lung)) (UniProt O88786); experiment: co-IP; Co-IP and IB with lung lysates from the progeny of crosses of IL-13 Tg mice and TMEM219-/- mice (with and without TMEM219)
T4 sequence: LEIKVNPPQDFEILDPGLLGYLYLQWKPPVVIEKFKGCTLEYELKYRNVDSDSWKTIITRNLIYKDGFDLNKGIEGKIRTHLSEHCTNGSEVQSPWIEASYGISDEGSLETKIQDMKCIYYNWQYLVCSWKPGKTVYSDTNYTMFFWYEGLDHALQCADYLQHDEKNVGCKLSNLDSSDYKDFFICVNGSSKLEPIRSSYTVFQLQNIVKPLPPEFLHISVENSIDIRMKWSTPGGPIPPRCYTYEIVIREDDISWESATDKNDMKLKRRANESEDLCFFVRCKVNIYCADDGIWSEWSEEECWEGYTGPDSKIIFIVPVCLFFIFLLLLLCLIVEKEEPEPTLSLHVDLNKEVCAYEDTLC

[4] = biological target: T5, human IL-13Rα2, full-length cDNA in pcDNA3.1, expressed in 1HAEo cells (human) (UniProt Q14627); experiment: co-IP; lysates of 1HAEo cells co-transfected with IL-13Rα2 and TMEM219 plasmids (pcDNA3.1); IP with anti-IL-13Rα2 or anti-TMEM219, immunoblot for the other; Catch and Release V2.0 kit
T5 sequence: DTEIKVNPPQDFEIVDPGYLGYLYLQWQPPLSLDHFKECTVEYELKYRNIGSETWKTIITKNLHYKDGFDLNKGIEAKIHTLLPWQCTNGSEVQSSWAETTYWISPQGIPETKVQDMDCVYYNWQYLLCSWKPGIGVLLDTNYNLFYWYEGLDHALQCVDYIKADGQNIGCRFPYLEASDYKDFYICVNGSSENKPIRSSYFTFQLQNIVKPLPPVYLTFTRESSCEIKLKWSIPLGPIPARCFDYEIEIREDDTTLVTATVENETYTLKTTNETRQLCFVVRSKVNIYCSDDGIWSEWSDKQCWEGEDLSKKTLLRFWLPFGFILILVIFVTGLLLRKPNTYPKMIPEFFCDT

[5] = biological target: T6, ectodomain of IL-13Rα2 (ecto-IL-13Rα2), labelled (UniProt Q14627); experiment: condition: TMEM219 nanodisc 10-10,000 nM, labelled protein 10 nM; fluorescence polarisation; fluorescence anisotropy; serial dilutions of TMEM219 in 13 nm nanodisc (10 nM-10 μM) added to 10 nM labelled protein or complex; PBS for labelling; empty nanodisc as control; both purified
T6 sequence (chain, BODPY-TRM-X-succinimidyl ester label): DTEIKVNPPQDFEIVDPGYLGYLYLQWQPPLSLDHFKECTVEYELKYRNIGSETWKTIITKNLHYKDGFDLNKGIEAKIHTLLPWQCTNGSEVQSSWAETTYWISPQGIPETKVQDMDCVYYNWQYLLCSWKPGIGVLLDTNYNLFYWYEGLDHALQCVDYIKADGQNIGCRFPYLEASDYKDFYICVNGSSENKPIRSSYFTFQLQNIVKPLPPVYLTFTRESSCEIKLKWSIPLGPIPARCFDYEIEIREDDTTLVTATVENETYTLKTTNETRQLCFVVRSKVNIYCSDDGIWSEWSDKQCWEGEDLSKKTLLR

[6] = biological target: Chi3l1 (chitinase 3-like-1), expressed in insect cells, labelled (UniProt P36222); experiment: as above
[7] = biological target: T7, recombinant human IL-13Rα1 (human) (UniProt P78552); experiment: co-IP; Co-IP/IB with recombinant human TMEM219 (350 ng), IL-13 (300 ng) and IL-13Rα1 (500 ng); both purified
T7 sequence: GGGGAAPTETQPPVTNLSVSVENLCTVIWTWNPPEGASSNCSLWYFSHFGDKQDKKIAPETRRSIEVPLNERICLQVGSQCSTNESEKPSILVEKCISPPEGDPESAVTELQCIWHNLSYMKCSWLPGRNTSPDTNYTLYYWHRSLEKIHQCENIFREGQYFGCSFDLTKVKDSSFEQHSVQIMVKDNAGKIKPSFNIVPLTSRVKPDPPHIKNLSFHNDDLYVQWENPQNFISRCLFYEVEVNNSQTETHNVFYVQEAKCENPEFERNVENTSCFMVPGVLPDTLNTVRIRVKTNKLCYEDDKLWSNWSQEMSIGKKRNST

IL-13Rα2-V1 (human) [8] = biological target: T2, IL-13Rα2-V1 (human); experiment: split reporter; BiFC with Venus YFP fragments V1 and V2 in primary NHBE cells treated with rChi3l1 or rIL-13
[9] = biological target: T8, human TMEM219, full-length cDNA in pcDNA3.1, expressed in 1HAEo cells (human) (UniProt Q86XT9); experiment: co-IP; lysates of 1HAEo cells co-transfected with IL-13Rα2 and TMEM219 plasmids (pcDNA3.1); IP with anti-IL-13Rα2 or anti-TMEM219, immunoblot for the other; Catch and Release V2.0 kit
T8 sequence: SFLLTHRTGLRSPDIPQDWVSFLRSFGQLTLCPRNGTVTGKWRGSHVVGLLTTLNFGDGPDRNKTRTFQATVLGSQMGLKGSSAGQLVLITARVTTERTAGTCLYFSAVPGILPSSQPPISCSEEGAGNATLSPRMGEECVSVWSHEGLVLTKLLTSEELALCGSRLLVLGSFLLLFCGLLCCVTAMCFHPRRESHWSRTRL

binding [1]: binds
B1: full-length TMEM219 in the yeast two-hybrid mapping assay (protein, UniProt Q86XT9 1-240)
chain: MGNCQAGHNLHLCLAHHPPLVCATLILLLLGLSGLGLGSFLLTHRTGLRSPDIPQDWVSFLRSFGQLTLCPRNGTVTGKWRGSHVVGLLTTLNFGDGPDRNKTRTFQATVLGSQMGLKGSSAGQLVLITARVTTERTAGTCLYFSAVPGILPSSQPPISCSEEGAGNATLSPRMGEECVSVWSHEGLVLTKLLTSEELALCGSRLLVLGSFLLLFCGLLCCVTAMCFHPRRESHWSRTRL

binding (IL-13Rα2-V1 (human) [2]): no binding
B2: C-C chemokine receptor type 3 (CCR3)-V2 (receptor, UniProt P51677 1-355)
chain: MTTSLDTVETFGTTSYYDDVGLLCEKADTRALMAQFVPPLYSLVFTVGLLGNVVVVMILIKYRRLRIMTNIYLLNLAISDLLFLVTLPFWIHYVRGHNWVFGHGMCKLLSGFYHTGLYSEIFFIILLTIDRYLAIVHAVFALRARTVTFGVITSIVTWGLAVLAALPEFIFYETEELFEETLCSALYPEDTVYSWRHFHTLRMTIFCLVLPLLVMAICYTGIIKTLLRCPSKKKYKAIRLIFVIMAVFFIFWTPYNVAILLSSYQSILFGNDCERSKHLDLVMLVTEVIAYSHCCMNPVIYAFVGERFRKYLRHFFHRHLLMHLGRYIPFLPSEKLERTSSVSPSTAEPELSIVF

binding (TMEM219-V2 (human)): no binding
B3: C-C chemokine receptor type 3 (CCR3)-V1 (receptor, UniProt P51677 1-355)
chain: MTTSLDTVETFGTTSYYDDVGLLCEKADTRALMAQFVPPLYSLVFTVGLLGNVVVVMILIKYRRLRIMTNIYLLNLAISDLLFLVTLPFWIHYVRGHNWVFGHGMCKLLSGFYHTGLYSEIFFIILLTIDRYLAIVHAVFALRARTVTFGVITSIVTWGLAVLAALPEFIFYETEELFEETLCSALYPEDTVYSWRHFHTLRMTIFCLVLPLLVMAICYTGIIKTLLRCPSKKKYKAIRLIFVIMAVFFIFWTPYNVAILLSSYQSILFGNDCERSKHLDLVMLVTEVIAYSHCCMNPVIYAFVGERFRKYLRHFFHRHLLMHLGRYIPFLPSEKLERTSSVSPSTAEPELSIVF

binding [3]: binds
B4: IL-13 in lungs of IL-13 transgenic mice (ligand, UniProt P20109 19-131)
chain: APGPVPRSVSLPLTLKELIEELSNITQDQTPLCNGSMVWSVDLAAGGFCVALDSLTNISNCNAIYRTQRILHGLCNRKAPTTVSSLPDTKIEVAHFITKLLSYTKQLFRHGPF

binding [4]: binds
B5: human TMEM219, full-length cDNA in pcDNA3.1, expressed in 1HAEo cells (protein, UniProt Q86XT9 39-240)
chain: SFLLTHRTGLRSPDIPQDWVSFLRSFGQLTLCPRNGTVTGKWRGSHVVGLLTTLNFGDGPDRNKTRTFQATVLGSQMGLKGSSAGQLVLITARVTTERTAGTCLYFSAVPGILPSSQPPISCSEEGAGNATLSPRMGEECVSVWSHEGLVLTKLLTSEELALCGSRLLVLGSFLLLFCGLLCCVTAMCFHPRRESHWSRTRL

binding [5]: no binding
binding [6]: no binding
B6: His-tagged human TMEM219 (protein, UniProt Q86XT9 39-240)
chain: SFLLTHRTGLRSPDIPQDWVSFLRSFGQLTLCPRNGTVTGKWRGSHVVGLLTTLNFGDGPDRNKTRTFQATVLGSQMGLKGSSAGQLVLITARVTTERTAGTCLYFSAVPGILPSSQPPISCSEEGAGNATLSPRMGEECVSVWSHEGLVLTKLLTSEELALCGSRLLVLGSFLLLFCGLLCCVTAMCFHPRRESHWSRTRL
binding [7]: no binding (tested: rhTMEM219 350 ng, IL-13Rα1 500 ng)

binding (IL-13Rα2-V1 (human) [8]): binds
binding (IL-13Rα2-V1 (human) [2]): binds
B7: TMEM219-V2 (protein, UniProt Q86XT9 39-240)
chain: SFLLTHRTGLRSPDIPQDWVSFLRSFGQLTLCPRNGTVTGKWRGSHVVGLLTTLNFGDGPDRNKTRTFQATVLGSQMGLKGSSAGQLVLITARVTTERTAGTCLYFSAVPGILPSSQPPISCSEEGAGNATLSPRMGEECVSVWSHEGLVLTKLLTSEELALCGSRLLVLGSFLLLFCGLLCCVTAMCFHPRRESHWSRTRL

binding [9]: binds
B8: human IL-13Rα2, full-length cDNA in pcDNA3.1, expressed in 1HAEo cells (receptor, UniProt Q14627 27-380)
chain: DTEIKVNPPQDFEIVDPGYLGYLYLQWQPPLSLDHFKECTVEYELKYRNIGSETWKTIITKNLHYKDGFDLNKGIEAKIHTLLPWQCTNGSEVQSSWAETTYWISPQGIPETKVQDMDCVYYNWQYLLCSWKPGIGVLLDTNYNLFYWYEGLDHALQCVDYIKADGQNIGCRFPYLEASDYKDFYICVNGSSENKPIRSSYFTFQLQNIVKPLPPVYLTFTRESSCEIKLKWSIPLGPIPARCFDYEIEIREDDTTLVTATVENETYTLKTTNETRQLCFVVRSKVNIYCSDDGIWSEWSDKQCWEGEDLSKKTLLRFWLPFGFILILVIFVTGLLLRKPNTYPKMIPEFFCDT
